Results: article PMC11995724, “Antibiotic target discovery by integrated phenotypic and activity-based profiling of electrophilic fragments” (Cell chemical biology, 2025)
The whole screen tested about 3,200 compounds, of which about 75 (2%) showed an effect of 50% or more. This is one part of the list.

test system: T1, S. aureus MSSA476; parameters: species or system S. aureus MSSA476 (TSB) or V. cholerae SAD30 (LB); 384-well bacterial growth screen at 25 uM, OD600 relative to DMSO control; details: relative growth, OD600, TSB; 25 µM; inhibitor
T1 construct: MSSA476

Compound	% of control remaining
Cc1cc(CC(C)NC(=O)C(C)Cl)n(-c2ccccc2)n1 (stereo not shown) [7-H21, 2-chloro-N-[1-(3-methyl-1-phenyl-1H-pyrazol-5-yl)propan-2-yl]propanamide]	81.0047%
C=CC(=O)N(C)CC1(O)CCc2ccccc21 (stereo not shown) [3-D11, N-[(1-hydroxy-2,3-dihydro-1H-inden-1-yl)methyl]-N-methylprop-2-enamide]	111.101%
C=CC(=O)NC1COCC1C (stereo not shown) [1-D06, N-(4-methyloxolan-3-yl)prop-2-enamide]	101.275%
CCc1oc2ccccc2c1C=C(C#N)C(=O)NC1CC1 [9-M12, 2-cyano-N-cyclopropyl-3-(2-ethyl-1-benzofuran-3-yl)prop-2-enamide]	127.64%
C=CC(=O)NCc1cc(Cl)c2c(c1)OCCO2 [1-L05, N-[(8-chloro-2,3-dihydro-1,4-benzodioxin-6-yl)methyl]prop-2-enamide]	104.791%
CSC1=C(C#N)C2(CCCCC2)C(C#N)=C(NC(=O)CCl)N1 [4-E10, 2-chloro-N-[1,5-dicyano-4-(methylsulfanyl)-3-azaspiro[5.5]undeca-1,4-dien-2-yl]acetamide]	96.4269%
Cc1noc(C)c1C(C)CNC(=O)C(C)Cl (stereo not shown) [6-P19, 2-chloro-N-[2-(3,5-dimethyl-1,2-oxazol-4-yl)propyl]propanamide]	92.878%
C=CC(=O)NCc1nc2ccccc2c(=O)n1C [3-J10, N-[(3-methyl-4-oxo-3,4-dihydroquinazolin-2-yl)methyl]prop-2-enamide]	133.391%
N#Cc1ccc(N2C(=O)C=CC2=O)cc1 [10-B09, 4-(2,5-dioxo-2,5-dihydro-1H-pyrrol-1-yl)benzonitrile]	133.438%
Cc1ccc(S(=O)(=O)NC2CN(C(=O)CCl)C2)cc1 [5-E07, N-[1-(2-chloroacetyl)azetidin-3-yl]-4-methylbenzene-1-sulfonamide]	90.7104%
COC(=O)Cc1ccc(C(=O)CCl)s1 [10-L12, methyl 2-[5-(2-chloroacetyl)thiophen-2-yl]acetate]	104.063%
Cc1cnc(C(C)N2CCN(C(=O)C(C)Cl)CC2)s1 (stereo not shown) [7-M03, 2-chloro-1-{4-[1-(5-methyl-1,3-thiazol-2-yl)ethyl]piperazin-1-yl}propan-1-one]	104.867%
CC(NC(=O)C(C#N)=Cc1ccc(-c2ccccc2)cc1)c1ccccc1 (stereo not shown) [8-J11, 3-{[1,1'-biphenyl]-4-yl}-2-cyano-N-(1-phenylethyl)prop-2-enamide]	121.826%
